Data reported in PubChem BioAssay (NCI).
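Tested at 5 concentrations; 48 h exposure; 96-well plates; endpoints linearly interpolated, else capped at highest concentration. GI50 marks 50% less growth. The concentration for full growth arrest is given as TGI.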

System: NCI-H322M lung
Test: NCI tumour cell line growth inhibition, 48 h

## CC1(C)CC[C@]23CC[C@]4(C)[C@H](CC[C@@H]5[C@@]6(C)CCCN(CO)C(C)(C)[C@@H]6CC[C@]54C)[C@H]2[C@H]1OC3
  GI50: 2.62 µM
  TGI: 8.05 µM
